# Test results reported in ChEMBL document CHEMBL4888484, “Replenishing the malaria drug discovery pipeline: Screening and hit evaluation of the MMV Hit Generation Library 1 (HGL1) against asexual blood stage Plasmodium falciparum ,using a nano luciferase reporter read-out” (2022).
# About 540 (0.36%) of roughly 150,000 compounds showed an effect of 50% or more. This is one part of the list.
# Test system: Plasmodium falciparum
# Assay: Primary screen in NF54 nanoGlo assay, in single point, at 2uM, 72h; a lower Z score goes with more inhibition
# Format: functional, Erythrocyte
# Settings: timepoint 72 hour
SMILES,% Inhibition,Z score
CCOc1cc([C@H]2Nc3ccccc3C(=O)N2c2ccc(F)cc2)ccc1OCc1ccccc1Cl,5%,-0.77
O=C(NCc1nnnn1C1CC1)N1CCC(CCc2ccc(F)cc2F)CC1,-7%,0.97
Cc1ccsc1CCC(=O)NC[C@H]1COc2ccccc21,-5%,0.78
O=S(=O)(Nc1ccc(N2CCOCC2)cc1)c1ccc(-c2nnc(C3CCC3)o2)o1,8%,-1.1
Cc1nnc(CN(C)C[C@H](C)Oc2ccc(Cl)c(Cl)c2)n1C,-4%,0.53
CC(C)Cn1cncc1CNC(=O)CNC(=O)N(C)C,-14%,1.59
O=C1C(=O)N(CN2CCC[C@H]2c2ccccc2)c2ccccc21,13%,-1.71
CCO[C@H]1CCN(C(=O)Cc2ccc3cn[nH]c3c2)C1,-4%,0.76
Cc1cc(C)cc([C@H]2CCN(S(=O)(=O)c3c(Cl)cnn3C)C2)c1,-8%,1.2
COCCN(CC(=O)N1N=C(c2cccn2C)C[C@H]1c1ccc(C)cc1)C(=O)c1ccc(OC)cc1,-11%,1.07
Cc1ccc(C2=NOC(CNC(=O)N3CCC[C@H]3CO)C2)cc1C (stereo partly drawn),4%,-0.43
CC(C)C[C@H]1CCN(C(=O)Nc2ccncc2F)C1,-8%,1.2
COc1ccc(F)cc1CC(=O)N1CCCC[C@@H]1CN1CCCC1=O,0%,0.01
CC(=O)NC(C)(C)C(N)=NOCc1c(Cl)cccc1Cl,-8%,1.2
CCc1nnc(CNS(=O)(=O)c2cccc(C(=O)NC3CCC3)c2)s1,-10%,1.79
CCCn1c(C)cnc1CC1CCN(C(=O)c2ccco2)CC1,-8%,1.22
C[C@H](NS(=O)(=O)c1cccnc1)c1ccccn1,-7%,1.4
CC(C)[C@H]1CCO[C@H]1C(=O)NCC(=O)N1Cc2ccccc2C1,-3%,0.28
Cc1nnc(N(C)C[C@H]2CCCCN2C)s1,-8%,1.43
Cc1c[nH]nc1C(=O)N[C@@](C)(CO)c1cccc(Br)c1,-1%,0.2
O=S(=O)(NC1(CN2CCCC2)CCCCC1)c1cccnc1,-11%,1.82
F[C@@H]1CN[C@H](CNc2nc(-c3ccccc3)nc3ccccc23)C1,-12%,2.11
CC(=O)N1CCC(CN(C)C(=O)C(C)Oc2cccc(C)c2)C1 (stereo not drawn),-14%,1.78
Cc1ccccc1-c1noc(C2CCN(C(=O)c3cc4ccccc4[nH]3)CC2)n1,1%,-0.08
Cc1c(NC(=O)COC(=O)c2cc(-c3cccc4ccccc34)nc3ccccc23)c(=O)n(-c2ccccc2)n1C,-9%,1.4
NC(=O)C1CCN(c2nc3cccnc3s2)CC1,-7%,0.83
CC(N(C)CC(=O)NC(C)(C#N)C1CC1)C(C)(C)C (stereo not drawn),3%,-0.36

SMILES,% Inhibition,Z score
Cc1c(NS(C)(=O)=O)cccc1C(N)=O,-11%,0.99
CCN([C@H]1CCN(c2ccccc2)C1=O)S(C)(=O)=O,-4%,0.48
O=C(Nc1nnc(-c2cccnc2)o1)c1ccc(Cl)cc1Cl,3%,-0.56
COc1ccc(CN2C[C@@H](C(=O)Nc3ccc4nc(C)[nH]c4c3)CC2=O)cc1OC,2%,-0.24
O=C(NCCCN1CCC[C@H](O)C1)c1ccc(-c2ccc3c(c2)OCO3)cc1,-3%,0.52
c1cnc2[nH]cc(-c3csc(CN4CCOCC4)n3)c2c1,-8%,1.18
Cc1noc(C)c1S(=O)(=O)N1CC(C)OCC1C (stereo not drawn),-3%,0.43
O=C(N[C@@H]1CCCC(F)(F)[C@H]1O)C1(O)CCC1,1%,-0.09
CCOC(=O)Cn1ncc2ccc(N)cc21,-3%,0.56
Cc1csc(CNC(=O)Cc2cnc3c(C)cccn23)n1,-18%,1.92
NC(=O)C1CCCN(C(=O)C2Cc3ccccc3C(=O)O2)C1 (stereo not drawn),-8%,1.4
CC(C)c1nc2cc(CCC(=O)NC3CCCC3)ccc2[nH]1,-13%,1.83
N[C@@H]1C[C@@H]2CC(c3nc(C4(c5ccccc5F)CC4)no3)C[C@@H]21 (stereo partly drawn),-1%,0.16
Cc1ncc(S(=O)(=O)NCCN2CC3CCC(C2)O3)s1,30%,-3.39
Cc1ccc(CNC(=O)[C@H]2CCN(C)C(=O)C2)c2ccccc12,8%,-1.47
CCOC(=O)CC(=O)Nc1cc2c(cc1N1CCCC1)n(C)c(=O)n2C,-8%,1.56
Cc1nn(C)cc1C(=O)NC[C@H]1CCCN(Cc2ccnn2C)C1,6%,-1.18
CCOc1ccc(CNc2nc(NCc3ccc(OCC)cc3)n(C(=O)COc3ccccc3)n2)cc1,-2%,0.25
C=CCC(CC=C)C(=O)N1CC(O)(CC)C1,-7%,0.77
Cc1ccc(CNC(=O)c2ccc3c(c2)N(C)[C@H]2CCCN2C3=O)cc1C,-6%,0.8
CCCNC(=O)N1CC[C@H](CCc2noc(C3CC3)n2)C1,5%,-0.75
O=S(=O)(c1cccc(C(F)(F)F)c1)N1CCCN(c2nc3cccnc3s2)CC1,-11%,1.15
Cc1cc(C)n(-c2ccc(=O)n([C@@H](C)C(=O)NCCc3ccc(S(N)(=O)=O)cc3)n2)n1,-12%,2.28
COc1ccc([C@@H](NC(=O)NCCC2(O)CCC2)C(F)(F)F)cc1,-1%,0.22
CC(C)NC(=O)N[C@@H]1CC[C@H]2CCOc3ccccc3C(=O)N3CCN(C4COC4)C[C@H]3C(=O)NC[C@H]1O2,4%,-0.63
Cc1csc(S(=O)(=O)N2CCOC[C@@H](CN(C)C)C2)c1,-12%,1.59
CCc1ncc(NS(=O)(=O)Cc2ccc(F)c(Cl)c2)cn1,0%,0.05
